The stoichiometry N is a count of units in the complex or per binding partner.

To fix the notation:
B1: SAMHD1 T592S (enzyme)
chain: not shown
notes: source: E. coli Rosetta 2 (DE3), purified (StrepTactin-XT, PreScission cleavage, GSTrap, Superdex 200); not shown: StrepII, N-terminal, cleaved
B2: SAMHD1 T592C (enzyme)
chain: not shown
notes: as for B1
B3: SAMHD1 T592K (enzyme)
chain: not shown
notes: as for B1
B4: SAMHD1 T592V (enzyme)
chain: not shown
notes: as for B1
B5: SAMHD1 T592E (enzyme)
chain: not shown
notes: as for B1
B6: SAMHD1 T592D (enzyme)
chain: not shown
notes: as for B1
B7: SAMHD1 T592L (enzyme)
chain: not shown
notes: as for B1
B8: SAMHD1 T592I (enzyme)
chain: not shown
notes: as for B1

One series concerns the molecule itself. Kind of series: SEC-MALS.
With B1, the “stoichiometry N” value worked out at 4.
The same measure, in the same setting: under B2 stands 4; under B3, 4; under B4, 4.
With B5, the “stoichiometry N” value is 4.
On to B6, for which the “stoichiometry N” value stood at 4.
In the case of B7, the “stoichiometry N” value turned out to be 4.
Consider B8, for which the “stoichiometry N” value was 4.

The next series deals with the molecule itself. Kind of series: SEC-MALS. This is another data set of the same source. For orientation: In gel filtration, larger molecules generally elute earlier.
On to B1, for which the “ftet (fraction tetramer remaining after 3 h incubation with GTP and dATP)” value came to 0.68 fraction; the “kdec (tetramer decay rate, with GTP and dATP)” value (shortened to “kdec”) worked out at 2.33e-05 s⁻¹.
For B2 the same measures were 0.63 fraction and 2.94e-05 s⁻¹.
Regarding B3, the “ftet (fraction tetramer remaining after 3 h incubation with GTP and dATP)” value turned out to be 0.12 fraction; the “kdec” value is 0.000221 s⁻¹.
With B4, the “ftet (fraction tetramer remaining after 3 h incubation with GTP and dATP)” value worked out at 0.61 fraction; the “kdec” value was 2.53e-05 s⁻¹.
Consider B5, for which the “ftet (fraction tetramer remaining after 3 h incubation with GTP and dATP)” value worked out at 0.36 fraction; the “kdec” value amounted to 7e-05 s⁻¹.
Turning to B6, the “ftet (fraction tetramer remaining after 3 h incubation with GTP and dATP)” value stood at 0.19 fraction; the “kdec” value came to 0.000112 s⁻¹.
As to B7, the “ftet (fraction tetramer remaining after 3 h incubation with GTP and dATP)” value worked out at 0.2 fraction; the “kdec” value came to 0.000152 s⁻¹.
For B8, in that order: 0.63 fraction and 3.07e-05 s⁻¹.

For the origin of these results see publication PMC10150492, “Attenuation of reverse transcriptase facilitates SAMHD1 restriction of HIV-1 in cycling cells” (Retrovirology, 2023).
